# Measurements from the supplement of paper PMC6135742.
# Structures can show the parent of a compound that is named as a salt. ± gives the standard deviation of the averaged measurements. The full ranking holds about 2,600 compounds; the median of “total cell number (DAPI+ nuclei) relative to DMSO vehicle control” is about -1.4, and the lowest 2% start at about -23. This is one part of the list.
# Test system: jimpy (Plp1 jimpy) mouse iPSC-derived oligodendrocyte progenitor cells
# Assay: total cell number (DAPI+ nuclei) relative to DMSO vehicle control (SDs above negative control mean); higher = more surviving cells
# Details: 10 µM; 3 days
row,SMILES,total cell number
1,CCCCNc1cc(C(=O)O)cc(S(N)(=O)=O)c1Oc1ccccc1 [Bumetanide],-4.15 ± 9.7
2,CC(C)n1c(/C=C/C(O)CC(O)CC(=O)O)c(-c2ccc(F)cc2)c2ccccc21 (centres undefined) [Fluvastatin Sodium],-5.69
3,CC(C)(C)c1ccc(C(=O)CCCN2CCC(OC(c3ccccc3)c3ccccc3)CC2)cc1 [Ebastine],-13.8 ± 3.7
4,O=c1ccn([C@@H]2O[C@H](CO)[C@@H](O)[C@H]2O)c(=O)[nH]1 [Uridine],-3.37
5,COCc1nc2c([nH]1)c(=O)n(C)c(=O)n2CC(C)C [8-Methoxymethyl-3-isobutyl-1-methylxanthine],-1.77
6,"CCCCS(=N)(=O)CCC(N)C(=O)O (racemic) [DL-Buthionine-[S,R]-sulfoximine]",-1.9
7,CCCCS(=N)(=O)CCC(N)C(=O)O (racemic) [L-Buthionine-sulfoximine],-0.554
8,Cc1ccnc(NS(=O)(=O)c2ccc(N)cc2)n1 [Sulfamerazine],-2.88
9,CCC[S+]([O-])c1ccc2[nH]c(NC(=O)OC)nc2c1 (centres undefined) [Albendazole Oxide],0.277
10,NC(=O)OCC(COC(N)=O)c1ccccc1 [Felbamate],0.539 ± 2
11,COC(=O)N[C@H](C(=O)N[C@@H](Cc1ccccc1)[C@@H](O)CN(Cc1ccc(-c2ccccn2)cc1)NC(=O)[C@@H](NC(=O)OC)C(C)(C)C)C(C)(C)C [Atazanavir Sulfate],-1.74
12,CNC[C@H](O)[C@@H](O)[C@H](O)[C@H](O)CO [Meglumine],-0.831
13,CCCCCCCCCC[Si](C)(C)CCC(=O)NC(Cc1ccc(C)cc1)c1ccccc1 (centres undefined) [Sandoz 58-035],0.626
14,COC(=O)Nc1ccc(-c2nc(N3CCOCC3)c3cnn(C4CCN(C(=O)OC)CC4)c3n2)cc1,-18.1
15,NS(=O)(=O)c1cc(Cl)c(Cl)c(S(N)(=O)=O)c1 [Dichlorphenamide],-0.368
16,CS(=O)(=O)c1ccc(-c2cnc(N)c(C(=O)Nc3ccccc3)n2)cc1,-8.12
17,COc1c(C)c2c(c(O)c1C/C=C(\C)CCC(=O)O)C(=O)OC2 [Mycophenolic acid],-12.1
18,O=C(Oc1ccccc1C(=O)O)c1ccccc1O [Sasapyrine],-0.0603
19,O=C(O)C1=CO[C@@H](O[C@@H]2O[C@H](CO)[C@@H](O)[C@H](O)[C@H]2O)[C@@H]2C(CO)=CC[C@H]12 [Geniposidic acid],-0.368
20,C[C@H](Cc1cc2c(c(C(N)=O)c1)N(CCCO)CC2)NCCOc1ccccc1OCC(F)(F)F [Silodosin],-11.4
21,CN(C)CCOc1ccc(-c2nc(-c3ccncc3)c(-c3ccc4c(c3)CC/C4=N\O)[nH]2)cc1,-14.8
22,CCCC(CCC)C(=O)O[C@H]1C[C@H]2CC[C@@H](C1)[N+]2(C)C [Anisotropine methyl bromide],12.1
23,O=C(NCCN1CCOCC1)c1ccc(Cl)cc1,1.72
24,O=C(NCCN1CCOCC1)c1ccc(Cl)cc1 [Moclobemide],-0.958
25,Cc1cc(Cl)ccc1OCCCC(=O)NO [Droxinostat],-4.36 ± 0.95

row,SMILES,total cell number
1,Cc1ccc(-n2sc(=O)n(Cc3ccc(F)cc3)c2=O)cc1,-4.28
2,O=C(c1ccc(/C=C/c2n[nH]c3ccccc23)cc1)N1CCNCC1,-13.2
3,C/C(=C\C(=O)Nc1ccccc1C(=O)O)c1ccc2ccccc2c1,-0.556
4,CC(=O)CCCCn1c(=O)c2c(ncn2C)n(C)c1=O [Pentoxifylline],-1.04
5,O=C(O)C=C1CCCc2ccccc2C1O (centres undefined),-0.492
6,COc1cccc(Nc2c(C(N)=O)cnc3c(C)cc(S(=O)(=O)c4cccc(C(=O)N(C)C)c4)cc23)c1,1.06
7,Nc1c(CC(=O)O)cccc1C(=O)c1ccc(Br)cc1 [Bromfenac Sodium],0.615
8,OCCN1CCN(CCCN2c3ccccc3C=Cc3ccccc32)CC1 [Opipramol dihydrochloride],-1.47
9,CC(C)(C)c1nc(-c2cccc(NS(=O)(=O)c3c(F)cccc3F)c2F)c(-c2ccnc(N)n2)s1,0.421
10,C[C@H]1O[C@@H](n2cc(F)c(=O)[nH]c2=O)[C@H](O)[C@@H]1O [5-fluoro-5'-deoxyuridine],-1.33
11,C[C@H]1O[C@@H](n2cc(F)c(=O)[nH]c2=O)[C@H](O)[C@@H]1O [Doxifluridine],-1.22
12,C[n+]1cccc(C(N)=O)c1 [1-Methylnicotinamide chloride],0.293
13,Clc1ccc(C(c2ccc(Cl)cc2)[n+]2ccn(CC(OCc3ccc(Cl)cc3Cl)c3ccc(Cl)cc3Cl)c2)cc1 (centres undefined) [Calmidazolium chloride],-12.9
14,CC(C)NC[C@H](O)COc1cccc2ccccc12 [(S)-Propranolol hydrochloride],-2.92
15,O=C(O)CCCCC(CCSCc1ccccc1)SCc1ccccc1 (centres undefined),0.934
16,CC1(C)CC[C@]2(C(=O)O)CC[C@]3(C)C(=CC[C@@H]4[C@@]5(C)CC[C@H](O)C(C)(C)[C@@H]5CC[C@]43C)[C@@H]2C1 [Oleanolic Acid],-2.01
17,O=c1c(-c2ccc(O)cc2)coc2cc(O)ccc12 [Daidzein],-0.0611 ± 1.3
18,C[C@@H](O)[C@H]1C(=O)N2C(C(=O)O)=C(S[C@@H]3CN[C@H](C(=O)N(C)C)C3)[C@H](C)[C@H]12 [Meropenem],1.87
19,CCCCCCCC/C=C\CCCCCCCC(=O)NCCO [N-Oleoylethanolamine],-2.13
20,CC(=O)O[C@H]1C[C@@H]2CC[C@@H]3[C@H](CC[C@@]4(C)[C@H]3C[C@H]([N+]3(C)CCCCC3)[C@@H]4OC(C)=O)[C@@]2(C)C[C@@H]1N1CCCCC1 [Vecuronium Bromide],-0.34
21,CC1(C)O[C@@H]2C[C@H]3[C@@H]4CCC5=CC(=O)CC[C@]5(C)[C@@]4(F)[C@@H](O)C[C@]3(C)[C@]2(C(=O)CCl)O1 [Halcinonide],3.22
22,C[C@]12C=CC(=O)C=C1CC[C@H]1[C@@H]3C[C@@H](O)[C@](O)(C(=O)CO)[C@@]3(C)C[C@H](O)[C@@]12F [Triamcinolone],-0.473 ± 1.1
23,CCN(CC)C(=O)/C(C#N)=C/c1cc(O)c(O)c([N+](=O)[O-])c1 [Entacapone],-0.656
24,C[C@@H]1O[C@@H](OC[C@H]2O[C@@H](Oc3c(-c4ccc(OCCO)c(OCCO)c4)oc4cc(OCCO)cc(O)c4c3=O)[C@H](O)[C@@H](O)[C@@H]2O)[C@H](O)[C@H](O)[C@H]1O [Troxerutin],1.54
25,COc1ccc2c(c1)c(CC(=O)N1CCOCC1)c(C)n2C(=O)c1ccc(Cl)cc1,-2.83

row,SMILES,total cell number
1,Cc1coc2c1C(=O)C(=O)c1c-2ccc2c1CCCC2(C)C [Tanshinone IIA],-0.251
2,CCc1c(O)cc(O)c(C(=O)c2ccc(OCCN3CCOCC3)c(OC)c2)c1CC(=O)N(CCOC)CCOC,-12.2
3,CNCCCC12CCC(c3ccccc31)c1ccccc12 [Maprotiline HCl],-10
4,CNCCCC12CCC(c3ccccc31)c1ccccc12 [Maprotiline hydrochloride],-7.26
5,O=C1Cc2c([nH]c3ccc(Br)cc23)-c2ccccc2N1 [Kenpaullone],-2.52
6,CC[C@H]1OC(=O)C[C@@H](O)[C@H](C)[C@@H](O[C@@H]2O[C@H](C)[C@@H](O)[C@H](N(C)C)[C@H]2O)[C@@H](CCN2C[C@H](C)C[C@H](C)C2)C[C@@H](C)C(=O)/C=C/C(C)=C/[C@@H]1CO[C@@H]1O[C@H](C)[C@@H](O)[C@@H](OC)[C@H]1OC [Tilmicosin],-3.95
7,CCCCCCC(=O)OC1CC(C)(C)NC(C)(C)C1 [TMPH hydrochloride],1.35
8,Oc1cc2c(cc1O)CN(C(=S)NCCc1ccc(Cl)cc1)CCC2 [Capsazepine],-8.8
9,Cc1cc(Cn2cnc3c2C[C@@H](C(=O)O)N(C(=O)C(c2ccccc2)c2ccccc2)C3)ccc1N,-6.04
10,Nc1nc(Cl)nc2c1ncn2[C@@H]1O[C@H](COP(=O)(O)OP(=O)(O)OP(=O)(O)O)[C@H](O)C1O (some centres undefined) [2-Chloroadenosine triphosphate tetrasodium],-2.1
11,NC[C@@H](O)c1ccc(O)c(O)c1 [L(-)-Norepinephrine bitartrate],0.337
12,CN(C)Cc1cccc(N=C(c2ccccc2)c2c(O)[nH]c3cc(C(=O)N(C)C)ccc23)c1,-11.8
13,Nc1nc2c(ncn2COCCO)c(=O)[nH]1 [Acyclovir],-2.02
14,Nc1nc2c(ncn2COCCO)c(=O)[nH]1 [Aciclovir],-1.83
15,Cc1cc(NC2CCCCC2)nc(-n2nc(C)cc2C)n1,-3.65
16,NCCSSCCN [Cystamine dihydrochloride],-0.337
17,CS(=O)(=O)N1CCN(Cc2cc3nc(-c4cccc5[nH]ncc45)nc(N4CCOCC4)c3s2)CC1,-23.7
18,COc1ccc2[nH]c([S@@+]([O-])Cc3ncc(C)c(OC)c3C)nc2c1 [Esomeprazole Sodium],1.8
19,COc1ccc2[nH]c([S@@+]([O-])Cc3ncc(C)c(OC)c3C)nc2c1 [Esomeprazole magnesium dihydrate],-0.604
20,CCCCCN(CCCCC)C(=O)C(CCC(=O)O)NC(=O)c1ccc(Cl)c(Cl)c1 (centres undefined) [Lorglumide sodium],-0.33
21,CC1(C)CCC[C@]2(C)[C@H]3CC(=O)O[C@]3(C)CC[C@@H]12 [Sclareolide],2.74
22,COc1c(N2C[C@@H]3CCCN[C@@H]3C2)c(F)cc2c(=O)c(C(=O)O)cn(C3CC3)c12 [Moxifloxacin HCl],2.57
23,COc1ccc(C(=O)CC(=O)c2ccc(C(C)(C)C)cc2)cc1 [Avobenzone],-0.688
24,CCOC(=O)C1=C(C)NC(C)=C(C(=O)OCC)C1c1ccccc1/C=C/C(=O)OC(C)(C)C [Lacidipine],-8.62
